Five molecules from paper PMC3541543 can be followed below.

These are yes or no findings as the source states them, for the method shown. For some assays here: Binding seen in cells or lysates may run through a third protein. Some entries that bind do so weakly or less than the wild type. For some assays here: Sequences can lack the tags named with a protein.

Assay [1] addresses T1, USH2A isoform B intracellular domain (aa 5064 to 5202), yeast two-hybrid bait (human) (UniProt O75445).
T1 sequence: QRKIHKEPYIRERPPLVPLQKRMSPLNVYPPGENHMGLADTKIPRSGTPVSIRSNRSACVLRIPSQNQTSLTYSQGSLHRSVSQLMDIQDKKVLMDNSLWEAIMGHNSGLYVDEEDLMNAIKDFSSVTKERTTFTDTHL
Kind of assay: two-hybrid; GAL4-based system (HybriZAP); screen of an oligo-d(T) primed human retinal cDNA library with USH2A isoB ICD as bait; clones activated all four reporter genes. In general terms: A reporter such as luciferase makes a cellular process visible.

Assay [2] addresses T2, GFP-tagged USH2A isoform B intracellular domain (human) (UniProt O75445).
T2 sequence: T1 sequence
Kind of assay: co-IP; from COS-1 cell lysates; GFP-fused USH2A isoB ICD precipitated with anti-GFP antibody, HA-tagged proteins detected.

Assay [3] deals with T3, USH2A isoform B peptide aa 5064 to 5196, yeast two-hybrid construct (human) (UniProt O75445).
T3 sequence: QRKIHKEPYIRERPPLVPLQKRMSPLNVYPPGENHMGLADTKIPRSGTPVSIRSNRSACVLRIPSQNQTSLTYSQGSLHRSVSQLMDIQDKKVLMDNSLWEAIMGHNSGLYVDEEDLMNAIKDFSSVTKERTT
Kind of assay: two-hybrid; GAL4-based system; deletion constructs of USH2A isoB ICD against fragments of the SPAG5 two-hybrid clone.

Assay [4] addresses T4, GST-fused USH2A isoform B intracellular domain (aa 5064 to 5202) (human) (UniProt O75445).
T4 sequence: T1 sequence
Kind of assay: pull-down; GST fusion protein from E. coli as bait; Flag-tagged protein from COS-1 cell lysate; detected by anti-Flag antibody; only the target purified.

B1: SPAG5 aa 774 to 1193, yeast two-hybrid clone from a human retinal cDNA library (domain or fragment, UniProt Q96R06 774-1193)
chain: EEMALKHMQAELQQQQAVLAKEVRDLKETLEFADQENQVAHLELGQVECQLKTTLEVLRERSLQCENLKDTVENLTAKLASTIADNQEQDLEKTRQYSQKLGLLTEQLQSLTLFLQTKLKEKTEQETLLLSTACPPTQEHPLPNDRTFLGSILTAVADEEPESTPVPLLGSDKSAFTRVASMVSLQPAETPGMEESLAEMSIMTTELQSLCSLLQESKEEAIRTLQRKICELQARLQAQEEQHQEVQKAKEADIEKLNQALCLRYKNEKELQEVIQQQNEKILEQIDKSGELISLREEVTHLTRSLRRAETETKVLQEALAGQLDSNCQPMATNWIQEKVWLSQEVDKLRVMFLEMKNEKEKLMIKFQSHRNILEENLRRSDKELEKLDDIVQHIYKTLLSIPEVVRGCKELQGLLEFLS
For the molecule B1, the binding result in assay [1] is “binds”.

B2: HA-whirlin (protein, UniProt Q9P202 1-907)
chain: MNAPLDGLSVSSSSTGSLGSAAGAGGGGGAGLRLLSANVRQLHQALTALLSEAEREQFTHCLNAYHARRNVFDLVRTLRVLLDSPVKRRLLPMLRLVIPRSDQLLFDQYTAEGLYLPATTPYRQPAWGGPDSAGPGEVRLVSLRRAKAHEGLGFSIRGGSEHGVGIYVSLVEPGSLAEKEGLRVGDQILRVNDKSLARVTHAEAVKALKGSKKLVLSVYSAGRIPGGYVTNHIYTWVDPQGRSISPPSGLPQPHGGALRQQEGDRRSTLHLLQGGDEKKVNLVLGDGRSLGLTIRGGAEYGLGIYITGVDPGSEAEGSGLKVGDQILEVNGRSFLNILHDEAVRLLKSSRHLILTVKDVGRLPHARTTVDETKWIASSRIRETMANSAGFLGDLTTEGINKPGFYKGPAGSQVTLSSLGNQTRVLLEEQARHLLNEQEHATMAYYLDEYRGGSVSVEALVMALFKLLNTHAKFSLLSEVRGTISPQDLERFDHLVLRREIESMKARQPPGPGAGDTYSMVSYSDTGSSTGSHGTSTTVSSARNTLDLEETGEAVQGNINALPDVSVDDVRSTSQGLSSFKPLPRPPPLAQGNDLPLGQPRKLGREDLQPPSSMPSCSGTVFSAPQNRSPPAGTAPTPGTSSAQDLPSSPIYASVSPANPSSKRPLDAHLALVNQHPIGPFPRVQSPPHLKSPSAEATVAGGCLLPPSPSGHPDQTGTNQHFVMVEVHRPDSEPDVNEVRALPQTRTASTLSQLSDSGQTLSEDSGVDAGEAEASAPGRGRQSVSTKSRSSKELPRNERPTDGANKPPGLLEPTSTLVRVKKSAATLGIAIEGGANTRQPLPRIVTIQRGGSAHNCGQLKVGHVILEVNGLTLRGKEHREAARIIAEAFKTKDRDYIDFLVTEFNVML
For the molecule B2, in assay [2], the binding result is “binds”.

B3: SPAG5 fragment aa 973 to 1193, yeast two-hybrid construct (domain or fragment, UniProt Q96R06 973-1193)
chain: MSIMTTELQSLCSLLQESKEEAIRTLQRKICELQARLQAQEEQHQEVQKAKEADIEKLNQALCLRYKNEKELQEVIQQQNEKILEQIDKSGELISLREEVTHLTRSLRRAETETKVLQEALAGQLDSNCQPMATNWIQEKVWLSQEVDKLRVMFLEMKNEKEKLMIKFQSHRNILEENLRRSDKELEKLDDIVQHIYKTLLSIPEVVRGCKELQGLLEFLS
Take B3: the binding result in assay [3] is “binds”.

B4: HA-tagged SPAG5 aa 973 to 1193 (domain or fragment, UniProt Q96R06 973-1193)
chain: B3 chain
As to B4, the binding result in assay [2] is “binds”.

B5: Flag-tagged full-length SPAG5 (protein, UniProt Q96R06 1-1193)
chain: MWRVKKLSLSLSPSPQTGKPSMRTPLRELTLQPGALTNSGKRSPACSSLTPSLCKLGLQEGSNNSSPVDFVNNKRTDLSSEHFSHSSKWLETCQHESDEQPLDPIPQISSTPKTSEEAVDPLGNYMVKTIVLVPSPLGQQQDMIFEARLDTMAETNSISLNGPLRTDDLVREEVAPCMGDRFSEVAAVSEKPIFQESPSHLLEESPPNPCSEQLHCSKESLSSRTEAVREDLVPSESNAFLPSSVLWLSPSTALAADFRVNHVDPEEEIVEHGAMEEREMRFPTHPKESETEDQALVSSVEDILSTCLTPNLVEMESQEAPGPAVEDVGRILGSDTESWMSPLAWLEKGVNTSVMLENLRQSLSLPSMLRDAAIGTTPFSTCSVGTWFTPSAPQEKSTNTSQTGLVGTKHSTSETEQLLCGRPPDLTALSRHDLEDNLLSSLVILEVLSRQLRDWKSQLAVPHPETQDSSTQTDTSHSGITNKLQHLKESHEMGQALQQARNVMQSWVLISKELISLLHLSLLHLEEDKTTVSQESRRAETLVCCCFDLLKKLRAKLQSLKAEREEARHREEMALRGKDAAEIVLEAFCAHASQRISQLEQDLASMREFRGLLKDAQTQLVGLHAKQEELVQQTVSLTSTLQQDWRSMQLDYTTWTALLSRSRQLTEKLTVKSQQALQERDVAIEEKQEVSRVLEQVSAQLEECKGQTEQLELENSRLATDLRAQLQILANMDSQLKELQSQHTHCAQDLAMKDELLCQLTQSNEEQAAQWQKEEMALKHMQAELQQQQAVLAKEVRDLKETLEFADQENQVAHLELGQVECQLKTTLEVLRERSLQCENLKDTVENLTAKLASTIADNQEQDLEKTRQYSQKLGLLTEQLQSLTLFLQTKLKEKTEQETLLLSTACPPTQEHPLPNDRTFLGSILTAVADEEPESTPVPLLGSDKSAFTRVASMVSLQPAETPGMEESLAEMSIMTTELQSLCSLLQESKEEAIRTLQRKICELQARLQAQEEQHQEVQKAKEADIEKLNQALCLRYKNEKELQEVIQQQNEKILEQIDKSGELISLREEVTHLTRSLRRAETETKVLQEALAGQLDSNCQPMATNWIQEKVWLSQEVDKLRVMFLEMKNEKEKLMIKFQSHRNILEENLRRSDKELEKLDDIVQHIYKTLLSIPEVVRGCKELQGLLEFLS
For B5, in assay [4], the binding result is “binds”.
